# Laboratory results reported in PubChem BioAssay AID1347417 (National Center for Advancing Translational Sciences (NCATS), 2020).
# Hit rate of the full screen: of about 120,000 compounds, about 5,300 (4.4%) were called active. Inconclusive means that the source gave no clear call. Such entries were picked first, then a sample of the others. Calls follow the shape of the dose curve; as a rule, active = well fitted inhibition curve with a large enough effect; inconclusive = small, poorly fitted or top-dose-only effect; inactive = no such curve, though single readings can be large or run the other way. Where the call is inconclusive, the potency comes from a doubtful curve fit.
# Test: qHTS Primary assay for Inhibitors of Plasmodium falciparum Dd2 growth in vitro; also: nearly all actives have a fitted effect of over 65% in size;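 as to activity, negative = inhibition: plate controls were DMSO vehicle for no effect and reference drug for full effect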
# Conditions: P. falciparum Dd2 growth, SYBR Green, 72 h; activity, negative = inhibition: at 28.9 µM (top of the series) unless noted; series mostly up to 28.9 µM
# How it was run: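 Readout: SYBR Green fluorescence, 485 nm excitation, 535 nm emission, after ~16 h lysis at 37C. Before that, Dd2-infected red cells (2.5% hematocrit) grew 72 h with compound, 29 uM top final concentration.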
# Potency is read from the fitted curve at half-maximal effect; tags tell the direction and shape of the fitted curve.
SMILES,Potency,"activity, negative = inhibition",outcome
COc1ccc(-c2cc3nc4c(c(=O)n3[nH]2)CN(C(=O)c2n[nH]c3c2CCCCCC3)CC4)cc1,"inconclusive: 1.58 µM [inhibitor, partial curve, poor fit]",,
CC(C)c1nncn1C1CCN(S(=O)(=O)Cc2cccc(Cl)c2)CC1,,inactive: -22.7%,
CCCC1c2nccn2CCCN1C(=O)c1occc1C (stereo not given),"inconclusive: 10 µM [inhibitor, single point]",,
COCCNC(=O)[C@@H]1C[C@@H](O)CN1C1CCN(C(=O)c2ccc(C(C)C)cc2)CC1,,inactive: -13.9%,
NCCC[C@@H](N)C(=O)N1CCC2(CCC(=O)N(Cc3ccccc3)C2)CC1,,inactive: 10.8%,
Cc1ccc(C2Cn3nnc(C(=O)N4CCC(C(=O)NC(C)c5ccccc5)CC4)c3CO2)cc1 (stereo not given),"inconclusive: 6.31 µM [inhibitor, partial curve]",,
CCc1ccc(-n2c(=O)c3cccnc3n2CC(=O)NCc2ccccc2)cc1,"inconclusive: 11.2 µM [inhibitor, single point]",,
CCCN(Cc1ccc(S(=O)(=O)NC)cc1)Cc1ccccc1OC,,inactive: -19.7%,
CC(=O)c1ccc(NC(=O)c2ccc3c(c2)N(Cc2cccc(Cl)c2)C(=O)c2ccccc2S3=O)cc1 (stereo not given),active: 11.2 µM,,
CCOC(=O)c1c(C)n(-c2ccccc2)c2ccc(OC(=O)COc3ccc(Cl)cc3)cc12,,inactive: 64.5%,
Cc1ccn2c(Nc3ccc4c(c3)OCCO4)c(-c3ccc(C)o3)nc2c1,"inconclusive: 15.8 µM [inhibitor, single point]",,
COC(=O)[C@@H]1Cc2c([nH]c3ccccc23)[C@H]2C[C@@H](NCCCn3ccnc3)C[C@@H](c3ccc(F)cc3)N21,"inconclusive: 2.82 µM [inhibitor, single point]",,
CCn1cc(S(=O)(=O)N2C[C@@H](C(N)=O)[C@H](c3n[nH]c(C)n3)C2)cn1,,inactive: -2.55%,
Cc1ccccc1OCCSc1nc2ccc(NC(=O)c3cccc(F)c3)cc2s1,"inconclusive: 11.2 µM [inhibitor, single point]",,
COc1cc2ncc3c(-c4ccc(C)cc4)nn(-c4ccc(F)cc4F)c3c2cc1OC,"inconclusive: 7.08 µM [inhibitor, partial curve, poor fit]",,
CS(=O)(=O)N1CC[C@H](c2nc3cc(Cl)ccc3o2)C1,,inactive: -14.4% [at 44.1 µM],
CN(C)CCCNc1cc(N2CCN(C3CCCCC3)CC2)c2noc3c2c1C(=O)c1ccccc1-3,"inconclusive: 0.891 µM [inhibitor, full curve, poor fit]",,
O=C1NC2(CCN(Cc3ccsc3)CC2)COc2ccccc21,active: 3.16 µM,,
COCCC1(N(C)C)CCN(C(=O)Cc2ccccc2)CC1,"inconclusive: 10 µM [inhibitor, single point]",,
CCCN(CC1CCOC1)S(=O)(=O)c1cccs1 (stereo not given),,inactive: 39.5% [at 5.79 µM],
Cc1ccc(C)c(N2CCN(S(=O)(=O)c3cc(C(=O)Nc4ccc(Oc5ccccc5)cc4)ccc3F)CC2)c1,"inconclusive: 11.2 µM [inhibitor, single point]",,
CC(C)=CCn1c(-c2cc(C)oc2C)cn2cc(C(=O)N(C)CC(C)C)nc2c1=O,active: 11.2 µM,,
Cc1nc(-c2ccc(F)cc2)n(CC(=O)Nc2ccc(F)cc2)c(=O)c1CCO,,,inactive

SMILES,Potency,"activity, negative = inhibition",outcome
COc1ccc(N(C)C(=O)c2c(C)oc3c2CN(Cc2ccc(F)cc2)CC3)cc1,active: 12.6 µM,,
Cn1c(=O)oc2cc(S(=O)(=O)CCC(=O)N3CCN(c4cccc(Cl)c4)CC3)ccc21,"inconclusive: 12.6 µM [inhibitor, single point]",,
COc1ccc(CN2CC3(CCN(C(=O)Cc4c[nH]c5ccccc45)CC3)C2=O)cc1,"inconclusive: 17.8 µM [inhibitor, single point]",,
COCC1CN(Cc2ccccc2C(F)(F)F)CC12CCNCC2 (stereo not given),"inconclusive: 3.16 µM [inhibitor, full curve, poor fit]",,
COCCN1Cc2nc(OCc3cccnc3)ccc2OCC1=O,,inactive: -20.4% [at 44.1 µM],
COCCN1CC(CO)C2(CCN(Cc3cc(F)c(F)cc3F)CC2)C1 (stereo not given),"inconclusive: 5.62 µM [inhibitor, partial curve]",,
CCCN(CCC)c1ccc(C2N=C(N)Nc3nc4ccccc4n32)cc1 (stereo not given),"inconclusive: 10 µM [inhibitor, single point]",,
O=C(CCc1conc1-c1ccccc1)NCc1ccco1,,inactive: 8.66%,
COC[C@@H]1CN(c2ncccn2)C[C@H]1C(=O)N(C)Cc1cn(C)nc1C,,inactive: -10.2%,
C[C@@H]1CN(C(=O)c2ccc(-c3nnn(C)n3)cc2)C[C@@]1(O)C1CC1,,inactive: -0.292%,
COc1c(C)cccc1C(=O)Nc1ccc(-c2nc3ccccc3s2)c(Cl)c1,,inactive: 126% [at 5.79 µM],
CCN(CC)C(=O)N1CCCC1c1noc(COc2ccc(F)cc2)n1 (stereo not given),,inactive: -22.2%,
CCN(CC)CCCNC(=O)c1ccc(Cn2c(SCc3ccccc3)nc3cccnc32)cc1,"inconclusive: 17.8 µM [inhibitor, single point]",,
COc1ccc(CN[C@H]2[C@H](O)[C@@H](N(C)CCc3ccccn3)[C@@H]3OC[C@H]2O3)cc1,,,inactive [at 44.1 µM]
O=C(Cc1cccnc1)N1C[C@@H](COCC2CC2)[C@H](c2ccncc2)C1,,inactive: 27.5%,
O=C1NCCCCCCN(S(=O)(=O)c2ccc3c(c2)OCCO3)[C@H]2CCC[C@@H]12,,inactive: -1.6%,
O=C(NCC(F)(F)F)C1CN(c2ccccc2)C(=O)N1 (stereo not given),"inconclusive: 3.55 µM [inhibitor, single point]",,
CCOc1ccccc1NC(=O)N1CC[C@@H]2C(=O)NCCCCCCN(Cc3ccncc3)[C@@H]2C1,,inactive: -24.9%,
COc1ccc(CCNC(=O)CN2C(=O)COc3ccc(S(=O)(=O)N4CCCC4)cc32)c(OC)c1,"inconclusive: 14.1 µM [inhibitor, single point]",,
Cc1c(C(=O)NCc2cccc(Cl)c2)sc2nc3n(c(=O)c12)CCCC3,"inconclusive: 11.2 µM [inhibitor, single point]",,
C[C@@H]1C(=O)O[C@H]2[C@H]1CC[C@@]1(C)Cc3sc(NC(=O)COCC(=O)O)nc3[C@@H](C)[C@H]21,,,inactive [at 44.1 µM]
COc1cccc(-c2nc(CS(=O)(=O)CC(=O)NCc3cccc(Cl)c3)c(C)o2)c1,"inconclusive: 15.8 µM [inhibitor, partial curve, poor fit]",,
